Test results as given in the supplement of paper PMC12217912.
Some of the results follow. Sequences were assembled here from the parent chain. Values near 0.05 are background.

B1: TEV protease; numbered along this chain (parent)
chain: MGESLFKGPRDYNPISSSICHLTNESDGHTTSLYGIGFGPFIITNKHLFRRNNGTLVVQSLHGVFKVKDTTTLQQHLVDGRDMIIIRMPKDFPPFPQKLKFREPQREERICLVTTNFQTKSMSSMVSDTSCTFPSGDGIFWKHWIQTKDGQCGSPLVSTRDGFIVGIHSASNFTNTNNYFTSVPKNFMELLTNQEAQQWVSGWRLNADSVLWGGHKVFMVKPEEPFQPVKEATQL

Variants of: B1
Assay: raw area under fraction-flipped curve 0-4 h after induction (AUC4h, not background-subtracted), DNA-recorder readout of cleavage of the substrate (dimensionless); higher = more cleavage of the substrate by the protease variant
Conditions: temperature: 34 °C; time window: 0-4 h after rhamnose induction
Description: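 In vivo DNA recorder in E. coli TOP10(DE3) ΔrhaA at 34 °C. Each TEVp single-site mutant (parent TEVp 0) is paired with a single-site variant of the 7-mer TEVs (canonical ENLYFQ|S). The substrate sits between flexible linkers in a Bxb1-sfGFP-TEVs-SsrA fusion, so cleavage stabilises Bxb1 and speeds flipping of a recombination array, read by NGS. The value is the raw area under the fraction-flipped curve over 0-4 h after rhamnose induction (AUC4h), with ≥20 reads per time point. It is not background-subtracted; inactive controls average about 0.047.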
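Note: Bxb1 expression induced with 0.2% (w/v) L-rhamnose at OD600 near 0.5, cultures sampled hourly, flipped fraction per protease–substrate barcode pair counted by paired-end Illumina sequencing.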

Variant	area with substrate ECLYFQS	area with substrate EDLYFQS	area with substrate EGLYFQS	area with substrate EILYFQS	area with substrate EKLYFQS	area with substrate ELLYFQS	area with substrate EMLYFQS	area with substrate EQLYFQS	area with substrate ERLYFQS	area with substrate ESLYFQS	area with substrate EVLYFQS	area with substrate EWLYFQS	area with substrate EYLYFQS	area with substrate EELYFQS	area with substrate EFLYFQS	area with substrate EHLYFQS	area with substrate EPLYFQS	area with substrate ETLYFQS
MGESLFKGPRDYNPISSSICHLTNESDGHTTSLYGIGFGPFIITNKHLFRRNNGTLVVQSLHGVFKVKDTTTLQQHLVDGRDMIIIRMPKDFPPFPQKLKFREPQREERICLVTTNFQTKSMSSMVSDTSCTFPSGDGIFWKHWIQTKDGQCGSHLVSTRDGFIVGIHSASNFTNTNNYFTSVPKNFMELLTNQEAQQWVSGWRLNADSVLWGGHKVFMVKPEEPFQPVKEATQL [P155H]	0.0449	0.0649	0.0421	0.054	0.0485	0.0525	0.0354	0.068	0.0692	0.0542	0.0522	0.0464	0.0373	–	–	–	–	–
MGESLFKGPRDYNPISSSICHLTNESDGHTTSLYGIGFGPFIITNKHLFRRNNGTLVVQSLHGVFKVKDTTTLQQHLVDGRDMIIIRMPKDFPPFPQKLKFREPQREERICLVTTNFQTKSMSSMVSDTSCTFPSGDGIFWKHWIQTKDGQCGSNLVSTRDGFIVGIHSASNFTNTNNYFTSVPKNFMELLTNQEAQQWVSGWRLNADSVLWGGHKVFMVKPEEPFQPVKEATQL [P155N]	0.0513	–	0.0569	0.0426	0.0475	0.0589	0.035	0.0523	0.0399	0.0454	0.0497	0.0486	0.0559	0.0544	0.0486	0.0367	–	–
MGESLFKGPRDYNPISSSICHLTNESDGHTTSLYGIGFGPFIITNKHLFRRNNGTLVVQSLHGVFKVKDTTTLQQHLVDGRDMIIIRMPKDFPPFPQKLKFREPQREERICLVTTNFQTKSMSSMVSDTSCTFPSGDGIFWKHWIQIKDGQCGSPLVSTRDGFIVGIHSASNFTNTNNYFTSVPKNFMELLTNQEAQQWVSGWRLNADSVLWGGHKVFMVKPEEPFQPVKEATQL [T147I]	0.0791	–	–	0.0868	0.0784	–	0.104	0.0924	0.0709	0.0726	0.0625	0.0716	0.0892	0.0702	0.0792	–	0.0917	0.0947
MGESLFKGPRDYNPISSSICHLTNESDGHTTSLYGIGFGPFIITNKHLFRRNNGTLVVQSLHGVFKVKDTTTLQQHLVDGRDMIIIRMPKDFPPFPQKLKFREPQREERICLVTTNFQTKSMSSMVSDTSCTFPSGDGIFWKHWIQPKDGQCGSPLVSTRDGFIVGIHSASNFTNTNNYFTSVPKNFMELLTNQEAQQWVSGWRLNADSVLWGGHKVFMVKPEEPFQPVKEATQL [T147P]	0.0643	0.0802	0.0535	0.0485	0.0761	0.0732	–	0.08	0.0688	0.0765	0.0647	0.0658	0.0839	–	0.0076	–	–	–
MGESLFKGPRDYNPISSSICHLTNESDGHTTSLYGIGFGPFIITNKHLFRRNNGTLVVQSLHGVFKVKDTTTLQQHLVDGRDMIIIRMPKDFPPFPQKLKFREPQREERICLVTTNFQTKSMSSMVSDTSCTFPSGDGIFWKHWIQWKDGQCGSPLVSTRDGFIVGIHSASNFTNTNNYFTSVPKNFMELLTNQEAQQWVSGWRLNADSVLWGGHKVFMVKPEEPFQPVKEATQL [T147W]	0.0523	0.0935	–	0.051	0.0629	0.0523	0.0662	0.0603	0.066	0.0554	0.0487	0.0806	0.0655	0.0586	–	0.0549	–	0.0575
MGESLFKGPRDYNPISSSICHLTNESDGHTTSLYGIGFGPFIITNKHLFRRNNGTLVVQSLHGVFKVKDTTTLQQHLVDGRDMIIIRMPKDFPPFPQKLKFREPQREERICLVTTNFQTKSMSSMVSDTSCTFPSGDGIFWKHWIQGKDGQCGSPLVSTRDGFIVGIHSASNFTNTNNYFTSVPKNFMELLTNQEAQQWVSGWRLNADSVLWGGHKVFMVKPEEPFQPVKEATQL [T147G]	0.0709	–	–	0.0574	0.0655	–	0.0762	0.0688	0.0634	0.076	0.0781	–	0.0632	0.0756	–	0.0835	–	0.073
MGESLFKGPRDYNPISSSICHLTNESDGHTTSLYGIGFGPFIITNKHLFRRNNGTLVVQSLHGVFKVKDTTTLQQHLVDGRDMIIIRMPKDFPPFPQKLKFREPQREERICLVTTNFQTKSMSSMVSDTSCTFPSGDGIFWKHWIQTKVGQCGSPLVSTRDGFIVGIHSASNFTNTNNYFTSVPKNFMELLTNQEAQQWVSGWRLNADSVLWGGHKVFMVKPEEPFQPVKEATQL [D149V]	0.0913	0.113	–	0.0898	0.105	–	–	–	–	0.0844	–	–	0.0989	–	–	–	–	–
MGESLFKGPRDYNPISSSICHLTNESDGHTTSLYGIGFGPFIITNKHLFRRNNGTLVVQSLHGVFKVKDTTTLQQHLVDGRDMIIIRMPKDFPPFPQKLKFREPQREERICLVTTNFQTKSMSSMVSDTSCTFPSGDGIFWKDWIQTKDGQCGSPLVSTRDGFIVGIHSASNFTNTNNYFTSVPKNFMELLTNQEAQQWVSGWRLNADSVLWGGHKVFMVKPEEPFQPVKEATQL [H143D]	0.0606	–	–	0.0502	0.0641	0.0587	0.0479	0.0671	0.0477	0.0563	0.0613	0.0604	0.0839	–	–	0.0584	–	–
MGESLFKGPRDYNPISSSICHLTNESDGHTTSLYGIGFGPFIITNKHLFRRNNGTLVVQSLHGVFKVKDTTTLQQHLVDGRDMIIIRMPKDFPPFPQKLKFREPQREERICLVTTNFQTKSMSSMVSDTSCTFPSGDGIFWKHWIQTWDGQCGSPLVSTRDGFIVGIHSASNFTNTNNYFTSVPKNFMELLTNQEAQQWVSGWRLNADSVLWGGHKVFMVKPEEPFQPVKEATQL [K148W]	0.0744	0.0931	–	0.0662	–	0.0729	0.093	0.101	–	0.0897	0.0767	0.0856	0.0656	–	–	0.125	–	–
